# Assay results reported in the supplement of paper PMC4166925.
# ± gives the standard deviation of the averaged measurements. The full ranking holds about 33,000 sequences; the median of “E-score (dimensionless, -0.5 to 0.5)” is about -0.046, and the highest 2% start at about 0.36. The list shows a part of the results.
# Test system: T1, SpTbr T-box DNA-binding domain (GST fusion)
# T1 sequence: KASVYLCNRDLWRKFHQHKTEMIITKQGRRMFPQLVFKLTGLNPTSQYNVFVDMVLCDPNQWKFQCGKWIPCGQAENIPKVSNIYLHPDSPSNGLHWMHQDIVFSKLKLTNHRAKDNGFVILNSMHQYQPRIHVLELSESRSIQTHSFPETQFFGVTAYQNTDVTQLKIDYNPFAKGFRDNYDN
# Experiment: PBM E-score of 8-mer (E-score (dimensionless, -0.5 to 0.5)); Tbr is Tbrain of the sea star Patiria miniata (Pm) or the sea urchin Strongylocentrotus purpuratus (Sp); higher = stronger binding preference; most listed sequences are background and not binding sites
# Conditions: the construct has about 5 more residues each side
# Outline: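 Using the Universal PBM Analysis Suite, every ungapped 8-mer received an enrichment E-score averaged over duplicate arrays. Probe intensities came from double-stranded Universal Agilent oligonucleotide arrays incubated with 200 nM GST-fused Tbr T-box DNA-binding domain in PBS (pH 7.5). That protein was expressed in BL21 E. coli at 20 °C and purified by glutathione affinity chromatography.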
row,Sequence,PBM E-score of 8-mer
1,CAGCCAAA,0.0186 ± 0.017
2,AAGTGGTG,0.205 ± 0.007
3,GCCGAGAA,0.115 ± 0.032
4,AGTTTCTA,-0.159 ± 0.03
5,CTTTCAGC,-0.162 ± 0.032
6,TCGATTAA,-0.058 ± 0.051
7,AGTGCGCC,-0.0205 ± 0.057
8,CGGCTATA,-0.0419 ± 0.069
9,AACCCCTT,-0.0308 ± 0.031
10,CTCCAAAA,-0.149 ± 0.074
11,CAAGCACC,0.0313 ± 0.011
12,CTTACCTA,-0.163 ± 0.054
13,GACTCGAC,-0.0494 ± 0.0017
14,ACCACACG,0.26 ± 0.039
15,GCCTGGTA,-0.00591 ± 0.042
16,CATGGAGG,-0.135 ± 0.027
17,CTAGCGCC,0.265 ± 0.021
18,GGTCTAAC,-0.0676 ± 0.032
19,AAGTGTGC,0.3891 ± 0.00091
20,CACTACCA,0.0725 ± 0.033
21,GCTGTTAC,0.0324 ± 0.031
22,AACCAACT,-0.171 ± 0.062
23,GTAGAGAC,-0.094 ± 0.029
24,ATTTGGTC,-0.107 ± 0.054
25,ACATAACC,0.03482 ± 0.00013

row,Sequence,PBM E-score of 8-mer
1,ACGCATCC,0.0665 ± 0.015
2,CCTTTTGA,0.0614 ± 0.015
3,CAGCGTGG,-0.111 ± 0.012
4,CACGGCTC,0.0832 ± 0.056
5,GCGTACAA,-0.0172 ± 0.059
6,ACTATGCG,0.123 ± 0.013
7,CTCGCATC,0.129 ± 0.052
8,AGCATGAA,0.0301 ± 0.0045
9,ATGACCTC,0.00034 ± 0.019
10,AATGGTCT,-0.0457 ± 0.068
11,ACTCAGCG,-0.0659 ± 0.13
12,GGGCAAGA,-0.184 ± 0.08
13,GATTAGAA,-0.143 ± 0.065
14,CTTCAGAC,-0.143 ± 0.032
15,CTATGTTA,-0.0604 ± 0.011
16,CCGTTTAC,0.108 ± 0.083
17,CATGTACA,-0.162 ± 0.012
18,AGGGGAAA,-0.213 ± 0.03
19,AACTGCGC,-0.0427 ± 0.13
20,CCGTGACG,0.201 ± 0.0074
21,AATTGGCG,0.158 ± 0.0053
22,GTAGCCAC,-0.0261 ± 0.014
23,GATGATGA,-0.0188 ± 0.039
24,AAGATTTG,-0.178 ± 0.04
25,CAACGTCC,-0.0399 ± 0.046

row,Sequence,PBM E-score of 8-mer
1,AAGATTGT,0.18 ± 0.063
2,ATTACTCC,-0.0237 ± 0.073
3,GAGTAGGA,-0.17 ± 0.034
4,CAACTAGA,-0.151 ± 0.086
5,AAGATATC,-0.00832 ± 0.034
6,CTATTTGC,-0.0356 ± 0.021
7,CCTCGTTA,-0.0711 ± 0.018
8,GCGGCTTA,-0.0848 ± 0.1
9,GTCAAATA,0.0335 ± 0.0093
10,CTTATATA,0.0515 ± 0.018
11,CGCACTTC,0.356 ± 0.02
12,AAATTACA,0.0963 ± 0.048
13,GGTCGGCA,-0.058 ± 0.026
14,ACATCTTC,-0.0301 ± 0.031
15,AAGAGGCT,-0.161 ± 0.0026
16,GATCGCGC,0.352 ± 0.025
17,TCCCTAGA,-0.273 ± 0.0067
18,CGTTCATA,0.00922 ± 0.017
19,CAACCTGA,-0.0529 ± 0.059
20,CACGATAA,0.104 ± 0.02
21,CATGCCGC,-0.0385 ± 0.067
22,ACCGTTAA,0.166 ± 0.061
23,GAGTTTGA,0.00341 ± 0.029
24,ACGGAAAC,0.0444 ± 0.063
25,ACCTGGCC,-0.0587 ± 0.06

row,Sequence,PBM E-score of 8-mer
1,CATATACG,-0.0849 ± 0.043
2,ATTTATCG,0.129 ± 0.061
3,CGAGTGCC,0.163 ± 0.036
4,AACAAGGA,-0.0954 ± 0.0015
5,GGAGCTCC,-0.3623 ± 0.0034
6,CCTGGGCG,0.118 ± 0.03
7,GCATACTA,-0.126 ± 0.0031
8,CCTACCAG,-0.021 ± 0.048
9,CCTAGCTA,-0.0724 ± 0.033
10,CCGGGTCA,-0.0393 ± 0.042
11,CACATTTA,0.194 ± 0.015
12,CAGAAAGA,-0.0118 ± 0.021
13,TGAAATCA,0.0637 ± 0.11
14,ACCGATGA,0.0444 ± 0.011
15,ATACAACC,-0.00881 ± 0.0022
16,CCCATTCA,-0.0966 ± 0.043
17,ACTTGAAA,-0.19 ± 0.013
18,AGGTTGTG,0.155 ± 0.045
19,ATGGCCGC,-0.0137 ± 0.044
20,CACGTAGA,0.0751 ± 0.027
21,CGTTTGGC,0.108 ± 0.061
22,GAACCCCA,-0.0647 ± 0.055
23,CGACTAAC,0.179 ± 0.0039
24,CCGATCTC,-0.0489 ± 0.059
25,CGGTACAG,-0.159 ± 0.028

row,Sequence,PBM E-score of 8-mer
1,CGGTTAAG,-0.0569 ± 0.1
2,AAGGACCT,-0.198 ± 0.015
3,AGTGAATC,-0.0392 ± 0.0088
4,GCAAGAGC,-0.0244 ± 0.092
5,GAATCCCC,-0.0952 ± 0.086
6,CACATCCG,0.201 ± 0.034
7,ACTCAGTC,0.0017 ± 0.025
8,GCCAGTCA,0.137 ± 0.018
9,CGATGACG,0.0899 ± 0.049
10,AGCATAAT,-0.177 ± 0.0018
11,GCCCTCTA,-0.0814 ± 0.06
12,AAAACATG,-0.0547 ± 0.0052
13,CAGTTACA,0.0479 ± 0.038
14,ACGCTCAG,0.0449 ± 0.0089
15,GCAGGGCA,-0.0201 ± 0.016
16,CTCTCGAC,0.112 ± 0.0017
17,GCGATTCA,0.024 ± 0.0043
18,AGCTGATC,-0.113 ± 0.02
19,CGACGGGA,-0.167 ± 0.043
20,AGTAGTAA,-0.0989 ± 0.016
21,AGATATCG,0.089 ± 0.025
22,AGGGACCG,-0.302 ± 0.12
23,CACTGTGA,0.265 ± 0.025
24,CTCTTGAA,-0.339 ± 0.069
25,AATTAGAC,-0.161 ± 0.047

row,Sequence,PBM E-score of 8-mer
1,ATGACTAG,-0.0601 ± 0.081
2,AGGAGCGA,-0.0089 ± 0.023
3,ATTGGTCA,0.0393 ± 0.019
4,ATCCGGCA,-0.12 ± 0.012
5,ATCATCGA,-0.174 ± 0.089
6,TACGCAAA,-0.107 ± 0.018
7,ATAGAACG,-0.159 ± 0.032
8,AGTCGAGA,-0.0286 ± 0.025
9,TAGTGGCA,0.229 ± 0.025
10,AAAGGCAG,-0.0504 ± 0.012
11,CAACGATC,-0.06557 ± 0.00012
12,TCAACGGA,0.0433 ± 0.055
13,CAACTGGA,0.0228 ± 0.025
14,AAGAATTG,-0.04217 ± 0.00012
15,GATGCGCC,-0.249 ± 0.0032
16,TGAGCCAA,-0.229 ± 0.019
17,GACACACC,0.321 ± 0.016
18,CTATGCAC,-0.0878 ± 0.03
19,ATGGGAGC,-0.168 ± 0.01
20,TAGCCATA,0.00574 ± 0.024
21,ACGCTAGC,0.0224 ± 0.019
22,AGAATTAC,-0.216 ± 0.062
23,GCTAGAAA,-0.0471 ± 0.028
24,GAATGTCA,0.0875 ± 0.014
25,CTCACACA,0.438 ± 0.0081

row,Sequence,PBM E-score of 8-mer
1,CCAGACCA,-0.035 ± 0.018
2,TGACACAA,0.296 ± 0.0053
3,AATGTGTC,0.413 ± 0.012
4,CCATCCCA,-0.0749 ± 0.041
5,CGTTCTCA,0.219 ± 0.015
6,CCCTTAGA,-0.16 ± 0.051
7,CAACCATC,-0.0294 ± 0.026
8,GGTTCGAC,0.08281 ± 0.00073
9,ACTACGCA,0.0779 ± 0.019
10,CAGAGAGC,-0.343 ± 0.032
11,AACGGGCC,-0.178 ± 0.025
12,AGTGCATA,-0.00926 ± 0.039
13,ATCTCCCC,-0.119 ± 0.0032
14,ACAAATTA,-0.0171 ± 0.0047
15,ATGGGTCA,-0.153 ± 0.027
16,CATCAGCC,-0.00502 ± 0.046
17,GATCAAGA,-0.0461 ± 0.025
18,AACGCGGG,-0.0217 ± 0.048
19,AATGAAAC,-0.221 ± 0.044
20,CACCGAGG,0.117 ± 0.067
21,AAACTCGG,-0.224 ± 0.046
22,ACCTCCTG,-0.0283 ± 0.016
